US20220096510A1, “METHOD AND PHARMACOLOGICAL COMPOSITION FOR THE PREVENTION OF RECURRENT INFECTIONS CAUSED BY CLOSTRIDIUM DIFFICILE” (UNIVERSIDAD ANDRÉS BELLO, priority 2018, published 2022)
Like-named read-outs stand apart in the source and are kept apart here.

How the values were obtained:
[1] = test system: C. difficile spores in Caco-2 cells; assay type: cell-based, C. difficile strain R20291; settings: for spore internalization in vitro: Caco-2 and T84 cells, data not shown
[2] = test system: C. difficile spores; assay type: in vivo, C57BL/6 mice
[3] = test system: C. difficile spores in T84 cells; assay type: cell-based, C. difficile strain R20291; settings: nystatin 30 μM

CN(C)CCCN1c2ccccc2Sc2ccc(Cl)cc21 [chlorpromazine]
spore internalization in vitro [1]: capable of reducing spore internalization

COc1ccc2c(c1)c(CC(=O)O)c(C)n2C(=O)c1ccc(Cl)cc1 [indomethacin]
spore internalization in vitro [1]: capable of reducing spore internalization

C[C@@H]1[C@H](O)[C@@H](C)/C=C/C=C/CC/C=C/C=C/C=C/C=C/C(O[C@H]2O[C@H](C)[C@@H](O)[C@H](N)[C@@H]2O)CC2O[C@](O)(CC(O)C(O)CCC(O)CC(O)CC(O)CC(=O)O[C@H]1C)CC(O)C2C(=O)O (stereo partly drawn) [nystatin]
histological damage in cecum samples during R-CDI (cellular infiltration, edema, epithelial damage) ([2]; mouse, in vivo): does not reduce histological damage | histological damage in colon samples during R-CDI (cellular infiltration, edema, epithelial damage) ([2]; mouse, in vivo): does not reduce histological damage | mice presenting diarrhea ([2]; mouse, in vivo): 50% | CFU in stools ([2]; mouse, in vivo, po): elevated values | increase in spore adherence [3]: 46% | reduction of spore entry in respect of the control [3]: 60% | spore internalization in vitro [1]: capable of reducing spore internalization | adherence of spores ([1]; Caco-2 cells, nystatin 6-30 μM): not affected | reduction of spore entry in respect of the control ([1]; Caco-2 cells, nystatin 6-30 μM, 1 h preincubation, 3 h infection MOI 10, dependent on inhibitor concentration): up to 79%

CN[C@H](CC(C)C)C(=O)N[C@H]1C(=O)N[C@@H](CC(N)=O)C(=O)N[C@H]2C(=O)N[C@H]3C(=O)N[C@H](C(=O)N[C@H](C(=O)O)c4cc(O)cc(O)c4-c4cc3ccc4O)[C@H](O)c3ccc(c(Cl)c3)Oc3cc2cc(c3O[C@@H]2O[C@H](CO)[C@@H](O)[C@H](O)[C@H]2O[C@H]2C[C@](C)(N)[C@H](O)[C@H](C)O2)Oc2ccc(cc2Cl)[C@H]1O [vancomycin]
mice presenting diarrhea ([2]; day 12, vancomycin 50 mg/kg, nystatin 8,500 IU/kg oral): 80%
